Values marked as one replicate rest on one cluster of the flow cell; about a third of the high ones do not repeat.
Tested on: ATP
Assay: switch fluorescence ratio, 500 uM ATP over buffer (Cy3 cluster intensity, sum of 5 cycles each) (fold (ratio)); higher = stronger signal-on switching upon ATP binding; sequences stand for … in TCGTCGGCAGCGTCAGATGTGTATAAGAGACAGTTTTTTTTTTTTTTTTTTTTTTTTT…TC
Details: aptamer strand: ATP DNA aptamer (quencher-CACCTGGGGGAGTATTGCGGAGGAAGG + anchor), 100 nM annealed; ATP concentration: 500 uM; one replicate
In short: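 Cy3-labelled switching-strand clusters on a modified Illumina MiSeq flow-cell were annealed to 100 nM quencher-labelled ATP aptamer, imaged in selection buffer, then imaged after 15 min with 500 uM ATP at 22 °C. Five buffer/ATP cycles ran, with NaOH stripping and re-annealing between them. The fluorescence ratio is summed target-cycle over summed buffer-cycle Cy3 intensity per cluster, averaged per switch-domain sequence. Clusters outside 100-1000 RFU were excluded.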
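Also: ATP exposure 15 min at 22 °C before imaging.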

| Sequence | switch fluorescence ratio |
| --- | --- |
| CAGGCTCGG | 0.973 |
| CAGGCTTCT | 1 |
| CAGGGAATGC | 1.48 |
| CAGGGACTGT | 1.03 |
| CAGGGAGGAT | 1.02 |
| CAGGGCCGGC | 1.02 |
| CAGGGCGGT | 1.03 |
| CAGGGCTGTG | 0.97 |
| CAGGGGACTG | 1.11 |
| CAGGGGATTC | 1 |
| CAGGGGCACT | 1.04 |
| CAGGGGGCTG | 0.969 |
| CAGGGTCTTT | 0.906 |
| CAGGGTTCAA | 0.978 |
| CAGGTAAAAA | 0.985 |
| CAGGTAAAAT | 1.02 |
| CAGGTAATAT | 1.03 |
| CAGGTACCTT | 1.01 |
| CAGGTACGGC | 0.989 |
| CAGGTCAACC | 0.971 |
| CAGGTGTCTT | 1.43 |
| CAGGTTACAG | 1.05 |
| CAGTAACCA | 1.03 |
| CAGTAATATG | 1.05 |
| CAGTAATGAA | 1.03 |

| Sequence | switch fluorescence ratio |
| --- | --- |
| CAGTACTAAG | 1.04 |
| CAGTAGCGA | 5.22 |
| CAGTAGGAGA | 1.03 |
| CAGTATGCTT | 0.955 |
| CAGTATTGGT | 1.01 |
| CAGTCCAGTT | 1.02 |
| CAGTCCCGGC | 1.03 |
| CAGTCGGGGC | 1 |
| CAGTCTACTT | 0.983 |
| CAGTCTATGC | 1.07 |
| CAGTCTGCCT | 0.999 |
| CAGTGAAAAT | 1.01 |
| CAGTGACTTC | 1.03 |
| CAGTGACTTG | 0.975 |
| CAGTGAGGAG | 0.989 |
| CAGTGATGGC | 0.969 |
| CAGTGTAGAT | 0.988 |
| CAGTGTTTGA | 1.05 |
| CAGTTAAAGT | 0.968 |
| CAGTTAAGGA | 0.967 |
| CAGTTAAT | 0.988 |
| CAGTTAGCGC | 1.04 |
| CAGTTAGGCT | 1.03 |
| CAGTTATATC | 1.03 |
| CAGTTATCCC | 1.04 |

| Sequence | switch fluorescence ratio |
| --- | --- |
| CAGTTGAGAC | 1.01 |
| CAGTTGTAAC | 1.03 |
| CAGTTGTGTC | 1.03 |
| CAGTTTATTC | 1.01 |
| CAGTTTGTCC | 0.985 |
| CATAAAGGTG | 1.4 |
| CATAAATAAG | 0.97 |
| CATAAATGTG | 0.984 |
| CATAACAAGA | 1.01 |
| CATAACTGGT | 0.98 |
| CATAAGCTTC | 1.11 |
| CATAATCTGA | 0.986 |
| CATAATGAT | 1 |
| CATACAAATT | 0.997 |
| CATACAATTT | 0.989 |
| CATACAGTCG | 1.05 |
| CATACGATTG | 0.996 |
| CATACGCAGT | 3.52 |
| CATACGCTGT | 1.94 |
| CATACGGCGT | 1.04 |
| CATACGGTG | 1.07 |
| CATACTATAT | 1.09 |
| CATACTGGGA | 1.07 |
| CATACTGGTC | 0.949 |
| CATAGAGAAT | 0.978 |

| Sequence | switch fluorescence ratio |
| --- | --- |
| CATAGAGTGG | 0.962 |
| CATAGATCAG | 0.964 |
| CATAGCCACG | 1.03 |
| CATAGCGTCT | 0.935 |
| CATAGCTTAA | 1.09 |
| CATAGGAGGA | 1.01 |
| CATAGTGTCA | 0.97 |
| CATAGTTCCT | 1.01 |
| CATAGTTGGG | 0.971 |
| CATATAAGAC | 1.08 |
| CATATCAAAC | 1.03 |
| CATATCCATT | 1.02 |
| CATATCCT | 1.05 |
| CATATCGGGC | 1.04 |
| CATATGAACT | 0.984 |
| CATATGACAG | 0.936 |
| CATATTACAT | 0.999 |
| CATATTAGTG | 1.03 |
| CATCAACACT | 1.03 |
| CATCACTGCC | 1.07 |
| CATCACTGTA | 1.18 |
| CATCACTTAT | 1.05 |
| CATCACTTCT | 1.04 |
| CATCACTTGA | 1.05 |
| CATCACTTTT | 1.04 |
